Test results reported in PubChem BioAssay AID1159614 (National Center for Advancing Translational Sciences (NCATS), 2016).
The campaign covered roughly 45,000 compounds. About 65 (0.1%) were called active. Calls come from the whole dose curve; as a rule, active = well fitted activation curve with a large enough effect; inconclusive = small, poorly fitted or top-dose-only effect; inactive = no such curve, though single readings can be large or run the other way. The list shows a part of the results.

Target: Galactocerebrosidase (Homo sapiens) (UniProt P54803)
Chain of UniProt P54803 (P54803 whole entry, looked up): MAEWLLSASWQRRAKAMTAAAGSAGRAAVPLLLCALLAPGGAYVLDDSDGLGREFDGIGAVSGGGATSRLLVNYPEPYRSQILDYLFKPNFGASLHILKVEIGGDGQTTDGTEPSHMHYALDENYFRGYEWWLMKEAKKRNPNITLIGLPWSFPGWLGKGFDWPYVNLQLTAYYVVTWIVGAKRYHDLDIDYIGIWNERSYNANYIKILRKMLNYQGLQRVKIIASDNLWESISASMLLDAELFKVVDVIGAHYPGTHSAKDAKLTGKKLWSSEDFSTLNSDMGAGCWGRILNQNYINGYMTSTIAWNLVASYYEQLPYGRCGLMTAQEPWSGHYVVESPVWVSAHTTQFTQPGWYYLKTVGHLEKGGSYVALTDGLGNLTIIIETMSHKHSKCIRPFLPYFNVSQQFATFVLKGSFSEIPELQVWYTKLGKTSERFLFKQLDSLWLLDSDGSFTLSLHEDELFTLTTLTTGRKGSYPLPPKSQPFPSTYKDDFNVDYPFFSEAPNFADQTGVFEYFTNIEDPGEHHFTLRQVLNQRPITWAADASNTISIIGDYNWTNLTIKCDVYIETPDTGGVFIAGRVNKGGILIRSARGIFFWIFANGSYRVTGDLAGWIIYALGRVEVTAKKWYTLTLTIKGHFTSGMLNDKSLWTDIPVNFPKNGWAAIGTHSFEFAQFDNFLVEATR
Test: A Novel Cell-Based Assay to Identify Small Molecules for B -Galactocerebrosidase; note: 0% is about no effect; nearly all actives have a fitted effect of over 65% in size
Conditions: 145M-Twi-hGALC-G270D cells (Twitcher mouse brain line with human GALC G270D), HMU-beta-Gal fluorescence, 48 h; series mostly up to 57.5 µM; activation: at the top concentration
Outline: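 Mutant human GALC (G270D), stably expressed in a Twitcher mouse brain cell line lacking endogenous GALC, is measured in live-treated cells via 6-hexadecanoylamino-4-methylumbelliferyl-β-galactoside hydrolysis (0.1 mM final, pH 5.2) with fluorescent detection.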

activation, inactive:
CC(C)OCCCNC(=O)CN1C(=O)c2cccnc2Sc2ccccc21 -12.3%
CCn1c(=O)cc(OCC(=O)N2CCN(c3ccc(C)cc3)C(C)C2)c2ccccc21 (stereo not given) -12.3%
CC(=O)c1ccc(NC(=O)CSc2nc(-c3ccc(C)cc3)nc3c2c(=O)n(C)c(=O)n3C)cc1 -5.18%
CCC(=O)Nc1ccc2nc(SCCOc3ccc(C)cc3OC)sc2c1 -6%
Cc1cc(Cl)ccc1OCC(=O)N(Cc1sccc1C)C1CCS(=O)(=O)C1 (stereo not given) -21.8%
CCN(CC)CCNC(=O)CN1N=C(c2ccc(OC)cc2)CCC1=O -7.06%
Cc1cccn2cc(-c3cccc(NC(=O)C(C)C)c3)nc12 -27.1%
O=C(Cn1cc(SCc2c(F)cccc2Cl)c2ccccc21)N1CCCCC1 -3.67%
Cn1c(=O)n(Cc2ccccc2)c(=O)c2c1nc1n2CCN1c1ccccc1 -7.02%
COc1ccc(-c2nn3c(-c4ccccc4)nnc3c3ccccc23)cc1 -13.1%
CC(=O)c1ccc(NC(=O)C2CCN(S(=O)(=O)c3c(C)noc3/C=C/c3ccc(C)cc3)CC2)cc1 -19.5%
Oc1ccccc1-c1nc2cnccn2c1Nc1ccc(Cl)cc1 -8.45%
COc1ccc(CNC(=O)CN2C(=O)COc3ccccc32)c(OC)c1 -10.1%
Cc1ccc2nc(NC(=O)CSc3cc(C)[nH]c(=O)n3)sc2c1 -13.1%
CCOc1ccc(C(=O)N2CCc3cc(OC)c(OC)cc3C2COc2ccc3c(C)cc(=O)oc3c2)cc1OCC (stereo not given) -5.55%
CCOc1ccc(CNC(=O)CCCn2c(=O)c3cccn3c3cccnc32)cc1 -2.15%
O=C1CCc2cc(S(=O)(=O)NCc3ccccc3)cc3c2N1CC3 -0.256%
COc1ccc(CCNC(=O)c2cc(Nc3ccccc3)nc3ccccc23)cc1OC -1.98%
COc1cc(NC(=O)CCNC(=O)Cn2ccc3ccccc3c2=O)cc(OC)c1OC -2.28%
COC(=O)c1c(NC(=O)CCCOc2ccc(C)cc2)sc2c1CCCC2 -15.1%
CCn1c(C(=O)Nc2ccccc2C(=O)OC)cc2sc(Cl)cc21 -14.7%
CCCCCCCCCCOc1cc2c(=O)c(C(=O)OCC)c[nH]c2cc1OCC -12.7% [at 5.77 µM]
O=S(=O)(NCCc1csc(-c2cccc(F)c2)n1)c1cc(F)ccc1F -19.8%
Cc1ccccc1Cn1c(SCc2ccc(C(=O)N3CCCCC3)cc2)nc2ccncc21 -17.9%
CCCOc1ccc(OC(=O)c2ccc(-c3ccc(CCC)cn3)cc2)cc1 -24.2%
O=C(CCCCn1c(=O)c2ccccc2n(Cc2ccc(F)cc2Cl)c1=O)NCCc1ccc(Cl)cc1 5.27%
CCCn1ccc2c(OCC(=O)Nc3ccccc3C(=O)OCC)cccc2c1=O -10.2%
COC(=O)c1ccccc1NC(=O)CCCn1c(C)c2cnn(-c3ccccc3)c(=O)c2c1C -15.3%
Cc1nc2c(c(C)nn2-c2ccccc2)c(C)c1CCC(=O)Nc1ccccc1 -5.66%
Cc1ccc(NC(=O)Cn2c(=O)n(Cc3ccc(F)cc3)c(=O)c3cccnc32)cc1C -15%
O=C(Nc1ccc(S(=O)(=O)N(Cc2ccccc2)c2ccccc2)cc1)c1ccccc1F -20.7%
CCN(CC)C(=O)C1=C(C)Nc2nc3ccccc3n2C1c1ccccc1F (stereo not given) -9.35%
CCC(=O)N1CCc2cc(CNC(=O)Nc3cc(OC)c(OC)c(OC)c3)ccc21 -18%
CCOC(=O)c1cc2c(=O)n3ccccc3nc2n(CCCOC)c1=NC(=O)c1c(-c2c(F)cccc2Cl)noc1C -4.42%
COc1ccccc1CNC(=O)Cc1c(C)c2cc3c(C)coc3c(C)c2oc1=O -7.97%
CCOc1ccc(S(=O)(=O)Nc2ccc3c(c2)CCCN3C(=O)c2cccs2)cc1 13.1%
COc1ccc(CNC(=O)CC(C)CC2=NS(=O)(=O)c3ccccc3N2)cc1 (stereo not given) -10.3%
Cc1ccccc1Cn1c(=O)n(Cc2ccco2)c(=O)c2sc3ccccc3c21 -9.43%
CCOc1ccc(CCNC(=O)C2Cc3ccccc3N2C(=O)CC)cc1 (stereo not given) -13.5%
CCOC(=O)c1ccc(Nc2c(-c3ccc(OC)cc3)nc3nc[nH]n23)cc1 -7.5%
O=C(Cc1ccc(NC(=O)N2CCCCc3ccccc32)cc1)NCc1cccc(Br)c1 -1.68%
COc1ccc(Cl)cc1NC(=O)Cn1c(=O)n(-c2ccc(C)cc2)c(=O)c2ccc(C(=O)NCc3ccccc3Cl)cc21 -15.8%
COc1ccc(CNC(=O)C(=O)NCC(c2ccco2)S(=O)(=O)c2cccs2)cc1 (stereo not given) -8.22%
CCCCn1c(SCc2ccccc2C)nc2ccsc2c1=O -5.19%
Cc1nnc(SCc2cc(=O)c3cc(F)ccc3[nH]2)n1C -7.93%
Cc1cccc(N2CCN(C(=O)Cn3c(C)c4cnn(-c5ccccc5)c(=O)c4c3C)CC2)c1C -12.9%
CC(C)c1ccccc1NC(=O)C(Cc1c[nH]c2ccccc12)NC(=O)OC(C)(C)C (stereo not given) -16.3%
Cc1ccc(S(=O)(=O)c2nc(-c3cccs3)oc2SCc2ccc(F)cc2)cc1 -6.97%
Cc1ccc(NC(=O)c2ccc3c(O)c(S(=O)(=O)c4ccc(Cl)cc4)c(=O)[nH]c3c2)cc1 -15.1%
CCOC(=O)C1CCCN(C(=O)Cn2ncc3c(C)n(Cc4ccc(Cl)cc4)c(C)c3c2=O)C1 (stereo not given) -3.4%
Cc1ccc(NS(=O)(=O)c2ccc3c(c2)CCN3C(=O)C2CC2)c(C)c1 -4.13%
CC1=C(C#N)C(NC(=O)c2ccccc2)(C(F)(F)F)C(=O)N1 (stereo not given) -9.79%
C=C(C)Cn1c(SCC(=O)c2ccc(Br)cc2)nc2sc3c(c2c1=O)CCCC3 -11%
CCCC(=O)N1c2ccccc2-c2nnc(SC)nc2OC1c1sccc1C (stereo not given) -17.2%
CCOC(=O)c1c(NC(=O)COc2ccc(Cl)cc2Cl)sc2c1CCCCC2 -12.5%
CCc1ccc(S(=O)(=O)Nc2cc3c(cc2C)n(C)c(=O)c(=O)n3C)cc1 -13.6%
CN(C)c1ccc(CNC(=O)Cn2c(-c3cccs3)cc3cc(Cl)ccc32)cc1 -10.1%
Cc1ccc(C)c(N2CCN(S(=O)(=O)c3cc(C(=O)Nc4ccccc4C(F)(F)F)ccc3F)CC2)c1 -24.2%
CC(Oc1ccccc1)C(=O)Nc1c(C(=O)Nc2cccc(F)c2)oc2ccccc12 (stereo not given) -2.88%
O=c1c2oc3ccccc3c2n(Cc2ccccc2F)c(=O)n1Cc1ccc2c(c1)OCO2 -6.31%
CCN(CC)S(=O)(=O)c1ccc(NC(=O)c2c(C)oc3ncnc(N4CCCCC4)c23)cc1 -22%
CC1=C(c2ccc(C)c(C)c2)S(=O)(=O)N=C1N1CCC(C(=O)NCc2ccc(N(C)C)cc2)CC1 -13.9%
Nc1c(-c2nc(-c3ccccc3Cl)no2)nnn1-c1ccccc1C(F)(F)F -19.7%
COc1ccccc1NC(=O)N1CCN(c2nnc(C)c3c(C)n(-c4ccccc4)nc23)CC1 7.82%
Cc1ccc(-c2nnc(SCC(=O)NCc3ccccc3)o2)cc1 -7.92%
CCN(CC)CCN(C(=O)c1ccco1)c1nc2ccc(F)cc2s1 -15.3%
Cc1ccc(NC(=O)Cn2nc(C)c3nn(-c4ccc(Cl)cc4)c(C)c3c2=O)cc1F -8.13%
COc1ccc(N2CCN(C(=O)CSc3nc(-c4ccccc4)no3)CC2)cc1 -8.73%
COc1ccc(OC)c(CCNC(=O)CCCn2c(=O)c3cccn3c3cccnc32)c1 -10.7%
CCOc1ccc(CNS(=O)(=O)c2ccc3c(c2)CC(C)N3C(C)=O)cc1OC (stereo not given) -12.7%
O=C(NCc1ccccc1)c1ccc(CS(=O)(=O)c2c(Cl)cccc2Cl)o1 -1.44%
COc1ccc(-c2n[nH]c3c2C(c2ccccn2)N(C)C3=O)cc1 (stereo not given) -7.75%
COc1ccc(-n2nc3c(N4CCC(C(=O)NC5CCCCC5)CC4)nnc(C)c3c2C)cc1 -10.3%
Cc1cc(C(=O)NCCc2ccc(Cl)cc2)c2c(C)nn(-c3ccccc3)c2n1 -13.6%
COc1cc(CNC(=O)c2ccc(NC(=O)N3CCCCc4ccccc43)cc2)cc(OC)c1OC -8.77%
CCOc1ccc(OCC)c(NC(=O)CN(C)S(=O)(=O)c2ccc3[nH]c(=O)oc3c2)c1 -13.7%
Cc1ccc(NC(=O)c2nc(S(=O)(=O)Cc3ccc(F)cc3)ncc2Cl)cc1C -18.8%
Cc1ccc2oc(=O)c3cnn(CC(=O)N4CCN(c5cccc(Cl)c5)CC4)c3c2c1 -18.6%
CCOC(=O)c1[nH]c(C)c(CCC(=O)N2CCN(c3cc(C)ccc3C)CC2)c1C -9.96%
O=C(CSc1nc(=O)[nH]c2c1CCC2)Nc1cc(C(F)(F)F)ccc1Cl -5.42%
Cc1cccc(C(=O)Nc2ccc3nc(SCC(=O)N4CCCC4)sc3c2)c1 -4.63%
CC(=O)c1cccc(NC(=O)CCn2nc(C)c(S(=O)(=O)N3CCCCC3)c2C)c1 -8.98%
Cc1ccc(OCC(=O)NCC(=O)OCc2cc(=O)n3nc(CC(C)C)sc3n2)cc1 -7.48%
CCc1ccccc1NC(=O)C1CCCN(S(=O)(=O)c2ccc3[nH]c(=O)ccc3c2)C1 (stereo not given) 2%
O=C(c1cccs1)N1CCCc2cc(NS(=O)(=O)c3cc(F)ccc3F)ccc21 -10.2%
O=C(NCCc1ccc(Cl)cc1)c1cnc2sc(N3CCCC3)nn2c1=O -5.86%
CC(=O)[C@@]1(O)CC[C@H]2[C@@H]3CCC4=CC(=O)CC[C@]4(C)[C@H]3CC[C@@]21C -10.8%
O=C(NCCCN1CCN(c2cccc(Cl)c2)CC1)c1ccc2nc(Cc3ccccc3)oc2c1 -9.17%
COc1cccc(CNC(=O)Cn2nc(C)c3sc4ccccc4c3c2=O)c1OC -10.7%
COc1ccc(NC(=O)c2cc(-c3ccccc3F)no2)cc1 -12.4%
Cc1cccc(Nc2sc(C(=O)c3ccc(Cl)cc3)c(N)c2C(N)=O)c1 -15.7%
Cc1nn2c(C)c(C(=O)N3CCN(c4ccc(Cl)cc4)CC3)cnc2c1-c1ccc(F)cc1 -18.8%
CCN(CC)C(=O)c1ccc(O)c(OC)c1 -6.89%
COc1cc2c(cc1OC)n(CC(=O)c1ccc(C)cc1C)c(=O)n1nc(CCn3nc(C)cc3C)nc21 -9.71%
O=S(=O)(c1ccc(-c2cnc(C3CC3)o2)cc1)N1CCN(c2ccccc2F)CC1 -8.06%
